Hit rate of the full screen: of about 310,000 compounds, about 14,000 (4.5%) showed an effect of 50% or more. The effect is printed as a negative number. Some of the results follow.
Molecular target: human ether-à-go-go-related gene (hERG) potassium channel (human, UniProt Q12809)
Assay: primary screen, population patch clamp on CHO cells stably expressing hERG
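Also: peak tail current of the secondary pulse compared with the same well before compound.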

Sequence of human ether-à-go-go-related gene (hERG) potassium channel (Q12809 whole entry, looked up): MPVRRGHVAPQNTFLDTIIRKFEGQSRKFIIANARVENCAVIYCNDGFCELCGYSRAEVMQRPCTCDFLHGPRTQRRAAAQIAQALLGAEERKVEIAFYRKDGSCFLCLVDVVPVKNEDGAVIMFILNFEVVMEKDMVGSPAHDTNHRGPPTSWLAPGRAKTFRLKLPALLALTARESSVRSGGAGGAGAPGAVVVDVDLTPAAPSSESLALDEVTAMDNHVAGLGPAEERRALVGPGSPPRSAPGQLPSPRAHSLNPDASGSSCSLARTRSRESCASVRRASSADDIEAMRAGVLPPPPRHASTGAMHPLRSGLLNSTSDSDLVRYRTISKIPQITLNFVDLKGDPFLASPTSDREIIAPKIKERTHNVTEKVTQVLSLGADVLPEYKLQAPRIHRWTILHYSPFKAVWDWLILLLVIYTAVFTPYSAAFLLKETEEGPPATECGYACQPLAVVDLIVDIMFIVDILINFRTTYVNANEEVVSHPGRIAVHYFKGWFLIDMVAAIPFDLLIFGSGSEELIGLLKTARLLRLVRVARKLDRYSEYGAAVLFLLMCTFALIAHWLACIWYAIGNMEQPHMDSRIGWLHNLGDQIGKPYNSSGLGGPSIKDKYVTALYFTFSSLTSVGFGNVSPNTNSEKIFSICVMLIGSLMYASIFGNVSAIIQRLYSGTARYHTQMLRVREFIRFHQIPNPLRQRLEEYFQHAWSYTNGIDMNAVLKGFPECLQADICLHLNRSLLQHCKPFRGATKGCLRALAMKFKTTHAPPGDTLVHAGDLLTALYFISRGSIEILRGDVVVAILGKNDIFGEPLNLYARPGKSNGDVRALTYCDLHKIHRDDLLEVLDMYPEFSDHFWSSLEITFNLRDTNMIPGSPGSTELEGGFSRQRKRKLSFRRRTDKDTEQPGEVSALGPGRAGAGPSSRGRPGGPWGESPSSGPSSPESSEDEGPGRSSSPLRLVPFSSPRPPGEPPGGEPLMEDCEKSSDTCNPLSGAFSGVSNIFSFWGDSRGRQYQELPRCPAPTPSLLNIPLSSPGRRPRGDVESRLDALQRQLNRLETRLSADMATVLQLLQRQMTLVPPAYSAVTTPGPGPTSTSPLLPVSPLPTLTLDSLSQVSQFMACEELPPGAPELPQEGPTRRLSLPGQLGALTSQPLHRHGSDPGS

Row | SMILES | hERG current change (%, negative = inhibition) at 10uM
1 | COc1ccc(Oc2coc3c(CN(C)C)c(O)ccc3c2=O)cc1 | 17.7%
2 | CCN(NC(=O)C(O)(c1ccc(F)cc1)c1ccc(F)cc1)C(=O)c1ccccc1 | 7.27%
3 | COC(=O)C1=C(N)Oc2cc(C)n(Cc3ccco3)c(=O)c2C1c1cccc(Cl)c1 (centres unmarked) | -5.24%
4 | O=C(CCn1cncn1)N1CCCC(N2CCN(c3ccc(F)cc3)CC2)C1 (centres unmarked) | -46.6%
5 | O=C(c1ccc(COc2ccc(F)cc2)o1)n1cc(Br)cn1 | 4.68%
6 | O=C(COC(=O)C1Cc2ccccc2CN1C(=O)c1ccccc1)Nc1ccc(SC(F)F)cc1 (centres unmarked) | -6.89%
7 | Cc1ccccc1NC(=O)Cc1nc(-c2c[nH]c(C(=O)N3CCCC3)c2)cs1 | 4.63%
8 | Cn1c2c(c(=O)n(C)c1=O)[C@@H]1c3c(ccc4ccccc34)OC[C@@H]1CO2 | 3.62%
9 | O=C(OC(C(=O)NC1CCCCC1)c1ccccn1)c1cccs1 (centres unmarked) | 5.98%
10 | CC(=O)NC(NC(=S)Nc1ccc(S(N)(=O)=O)cc1)C(Cl)(Cl)Cl (centres unmarked) | 13%
11 | Cn1c(CCNC(=O)c2ccccc2F)nnc1SCC(=O)Nc1nncs1 | 12.8%
12 | Cc1[nH]n(-c2ccccc2)c(=O)c1C=Nc1ccc(S(=O)(=O)N=C(N)N)cc1 | 3.34%
13 | CC(C)c1ccc(CNc2ccc([N+](=O)[O-])cn2)cc1 | -7.79%
14 | Cl.Clc1ccc(NCc2ccsc2)cc1 | 16.4%
15 | N#CC1=C(N)Oc2c(ccc3cccnc23)C1c1ccccc1 (centres unmarked) | -23.9%
16 | COc1cc(/C=C(/NC(C)=O)C(=O)O)cc(Cl)c1OCc1ccc(Br)cc1 | -1.19%
17 | CC(C)Cc1nnc(NC(=O)C2CCCC2)s1 | 9.25%
18 | Cc1ccc(S(=O)(=O)N2CCN(CC(=O)N/N=C\c3cccnc3)CC2)cc1 | 0.297%
19 | NS(=O)(=O)c1ccc(CCNC(=O)c2ccncc2)cc1 | 23.1%

Row | SMILES | hERG current change (%, negative = inhibition) at 10uM
20 | Cc1ccc(NC(=O)Nc2ccc3c(c2)N(C)C(=O)CS3)nc1 | 1.11%
21 | O=C(c1ccc(Cl)s1)N1CCc2ccccc21 | -6.88%
22 | Cc1cccc(N=C2C(=O)Nc3c(Cl)cccc32)c1 | 18.5%
23 | c1ccc(CCn2nnnc2CN2CCc3ccccc32)cc1 | -11.4%
24 | Cc1ccccc1N(CC(=O)NC(C)(C)C)C(=O)c1ccc(-c2ccccc2)[nH]1 | -5.85%
25 | CC(C)[C@H](NC(N)=O)C(=O)NCCc1ccc(Cl)cc1Cl | -27%
26 | Cc1ccc(NC(=O)Cn2nnc(-c3ccc4c(c3)OCO4)n2)cc1F | 11%
27 | C=CCc1cc(/C=C2/NC(=O)N(CC)C2=O)cc(OCC)c1OCc1ccc(C(=O)O)cc1 | -5.71%
28 | CCOc1cc2oc(=O)c3c(c2cc1Cl)CCC3 | 7.75%
29 | COc1cc(/C=N/NC(=O)CCOc2ccccc2C)cc(Br)c1O | -16.4%
30 | CCC(C)Sc1ccc([C@@H]2[C@H]3C(=O)N(CC)C(=O)[C@H]3[C@]3(C(=O)OC)CCCN23)cc1OC.O=C(O)C(F)(F)F (some centres unmarked) | -44.9%
31 | O=S(=O)(NCc1ccccn1)c1ccc2c(c1)OCCO2 | 10.5%
32 | Cc1ccc(C(=O)NCCN2CCOCC2)c(Cl)c1 | 5.79%
33 | O=C(CSc1nc(O)c(Cc2ccccc2)c(=O)[nH]1)Nc1ccccc1 | 8.28%
34 | COC1C(C)=C(C)C(=O)N1Cc1ccccc1 (centres unmarked) | 10.9%
35 | COc1ccc(C)cc1NC(=O)C(OC(=O)CNC(=O)c1cccc(F)c1)c1ccccc1 (centres unmarked) | -0.966%
36 | COc1ccc(C(=O)OCC(=O)Nc2nnc(-c3ccccc3)o2)cc1 | 1.81%
37 | COc1cccc(-c2nnc(SCC(=O)OC(C)C)n2Cc2ccco2)c1 | -15.3%
38 | O=C(COC(=O)c1cccs1)NCc1ccco1 | 0.629%

Row | SMILES | hERG current change (%, negative = inhibition) at 10uM
39 | COc1ccc(OCCOC(=O)CCS(=O)(=O)c2ccc(C)cc2)cc1 | -7.59%
40 | Cc1ccccc1S(=O)(=O)Nc1nc2ccccc2nc1Cl | 3.98%
41 | NC1=NC(=O)C2(COC(c3cccc([N+](=O)[O-])c3)OC2)S1 (centres unmarked) | -4.96%
42 | O=C(Nc1ccc(Cl)cc1)c1ccc2c(c1)S(=O)(=O)c1ccccc1C2=O | 8.74%
43 | CCOC(=O)c1sc(NC(=O)CN(CC)CC)c(C(=O)OCC)c1C | 13.3%
44 | Cc1ccccc1OCC(=O)OCC(=O)c1ccc[nH]1 | -7.35%
45 | C/C(=N\NC(=O)c1ccc(CN2CCOCC2)cc1)c1ccc(NC(=O)c2ccccc2)cc1 | -9.74%
46 | C=CCn1c(N)c(C(=O)NCc2ccco2)sc1=S | -5.83%
47 | Cc1ccccc1NC(=S)NNC(=O)c1csc2c1CCC(C)C2 (centres unmarked) | 9.44%
48 | Cc1ccccc1Oc1ccc(NC(=O)C2CC=CCC2C(=O)O)cc1 (centres unmarked) | 12%
49 | COC(=O)CN(c1ccc(OC)cc1)S(=O)(=O)c1c(C)noc1C | 2.56%
50 | O=C(Nc1ccc(Cl)cc1)N1CCc2[nH]c3ccccc3c2C1 | -17.9%
51 | CN1CCc2nc(SCC(=O)Nc3cccc(F)c3)c(C#N)c(-c3cccs3)c2C1 | -62.3%
52 | CCC(=O)N(CC)c1nc(-c2ccc(OC)cc2)cs1 | -5.81%
53 | CCc1ccccc1N(CC(=O)NCc1ccco1)C(=O)CCC(=O)Nc1ccccn1 | -7.41%
54 | COc1ccc(C(=O)N(C)c2c(C)n(C)n(-c3ccccc3)c2=O)cc1OC | 22.6%
55 | COn1c(=O)c(-c2ccc(Cl)cc2)[n+]([O-])c2ccccc21 | 3.06%
56 | O=C(Nc1ccccc1N1CCCCC1)c1cnccn1 | -14.4%

Source: PMC4336329 (PLoS ONE, 2015)
